In PMC9911399, “Two distinct binding modes provide the RNA-binding protein RbFox with extraordinary sequence specificity”:
Residue numbers refer to the chain shown, from its start. This is one part of the list.

B1: GAACCCU (DNA:RNA)
RNA: GGGAGACCGGAAUUCAGAUUGUCCGAACCCUUUAAAUCCCGUCGUAGCCACCA
DNA 1: CAATCTGAATTCCGGTCTCCC
DNA 2: TGGTGGCTACGACGGGATT
B2: GUGUUCG (DNA:RNA)
RNA: B1 RNA with A26U, A27G, C28U, C29U, U31G
DNA 1: CAATCTGAATTCCGGTCTCCC
DNA 2: TGGTGGCTACGACGGGATT
B3: ACUUACC (DNA:RNA)
RNA: B1 RNA with G25A, A26C, A27U, C28U, C29A, U31C
DNA 1: CAATCTGAATTCCGGTCTCCC
DNA 2: TGGTGGCTACGACGGGATT
B4: UUAUCAU (DNA:RNA)
RNA: B1 RNA with G25U, A26U, C28U, C30A
DNA 1: CAATCTGAATTCCGGTCTCCC
DNA 2: TGGTGGCTACGACGGGATT
B5: UGUCGUG (DNA:RNA)
RNA: B1 RNA with G25U, A26G, A27U, C29G, C30U, U31G
DNA 1: CAATCTGAATTCCGGTCTCCC
DNA 2: TGGTGGCTACGACGGGATT
B6: ACAUGCU (DNA:RNA)
RNA: B1 RNA with G25A, A26C, C28U, C29G
DNA 1: CAATCTGAATTCCGGTCTCCC
DNA 2: TGGTGGCTACGACGGGATT
B7: GAUGCAU (DNA:RNA)
RNA: B1 RNA with A27U, C28G, C30A
DNA 1: CAATCTGAATTCCGGTCTCCC
DNA 2: TGGTGGCTACGACGGGATT
B8: UCUGGCA (DNA:RNA)
RNA: B1 RNA with G25U, A26C, A27U, C28G, C29G, U31A
DNA 1: CAATCTGAATTCCGGTCTCCC
DNA 2: TGGTGGCTACGACGGGATT
B9: GCAGCUA (DNA:RNA)
RNA: B1 RNA with A26C, C28G, C30U, U31A
DNA 1: CAATCTGAATTCCGGTCTCCC
DNA 2: TGGTGGCTACGACGGGATT
B10: UGUCUUU (DNA:RNA)
RNA: B1 RNA with G25U, A26G, A27U, C29U, C30U
DNA 1: CAATCTGAATTCCGGTCTCCC
DNA 2: TGGTGGCTACGACGGGATT
B11: GGAUACC (DNA:RNA)
RNA: B1 RNA with A26G, C28U, C29A, U31C
DNA 1: CAATCTGAATTCCGGTCTCCC
DNA 2: TGGTGGCTACGACGGGATT
B12: CAACCAA (DNA:RNA)
RNA: B1 RNA with G25C, C30A, U31A
DNA 1: CAATCTGAATTCCGGTCTCCC
DNA 2: TGGTGGCTACGACGGGATT
B13: AUGUGUA (DNA:RNA)
RNA: GGGAGACCGGAAUUCAGAUUGUCCAUGUGUAUUAAAUCCCGUCGUAGCCACCA
DNA 1: CAATCTGAATTCCGGTCTCCC
DNA 2: TGGTGGCTACGACGGGATT
B14: GUUCUGG (DNA:RNA)
RNA: B1 RNA with A26U, A27U, C29U, C30G, U31G
DNA 1: CAATCTGAATTCCGGTCTCCC
DNA 2: TGGTGGCTACGACGGGATT
B15: CCGGUAA (DNA:RNA)
RNA: B13 RNA with A25C, U26C, U28G, G29U, U30A
DNA 1: CAATCTGAATTCCGGTCTCCC
DNA 2: TGGTGGCTACGACGGGATT
B16: GGACUGC (DNA:RNA)
RNA: B1 RNA with A26G, C29U, C30G, U31C
DNA 1: CAATCTGAATTCCGGTCTCCC
DNA 2: TGGTGGCTACGACGGGATT
B17: GAUGACG (DNA:RNA)
RNA: B1 RNA with A27U, C28G, C29A, U31G
DNA 1: CAATCTGAATTCCGGTCTCCC
DNA 2: TGGTGGCTACGACGGGATT
B18: UCCUCGC (DNA:RNA)
RNA: B13 RNA with A25U, U26C, G27C, G29C, U30G, A31C
DNA 1: CAATCTGAATTCCGGTCTCCC
DNA 2: TGGTGGCTACGACGGGATT
B19: GGUAAUU (DNA:RNA)
RNA: B1 RNA with A26G, A27U, C28A, C29A, C30U
DNA 1: CAATCTGAATTCCGGTCTCCC
DNA 2: TGGTGGCTACGACGGGATT
B20: GGGGUUA (DNA:RNA)
RNA: B13 RNA with A25G, U26G, U28G, G29U
DNA 1: CAATCTGAATTCCGGTCTCCC
DNA 2: TGGTGGCTACGACGGGATT
B21: AGUACGU (DNA:RNA)
RNA: B1 RNA with G25A, A26G, A27U, C28A, C30G
DNA 1: CAATCTGAATTCCGGTCTCCC
DNA 2: TGGTGGCTACGACGGGATT
B22: CUCUUCU (DNA:RNA)
RNA: B13 RNA with A25C, G27C, G29U, U30C, A31U
DNA 1: CAATCTGAATTCCGGTCTCCC
DNA 2: TGGTGGCTACGACGGGATT
B23: GCAUCCG (DNA:RNA)
RNA: B1 RNA with A26C, C28U, U31G
DNA 1: CAATCTGAATTCCGGTCTCCC
DNA 2: TGGTGGCTACGACGGGATT
B24: UACUACU (DNA:RNA)
RNA: B1 RNA with G25U, A27C, C28U, C29A
DNA 1: CAATCTGAATTCCGGTCTCCC
DNA 2: TGGTGGCTACGACGGGATT
B25: CUCUCAU (DNA:RNA)
RNA: B13 RNA with A25C, G27C, G29C, U30A, A31U
DNA 1: CAATCTGAATTCCGGTCTCCC
DNA 2: TGGTGGCTACGACGGGATT
B26: GAUGAGA (DNA:RNA)
RNA: B1 RNA with A27U, C28G, C29A, C30G, U31A
DNA 1: CAATCTGAATTCCGGTCTCCC
DNA 2: TGGTGGCTACGACGGGATT
B27: AACGCAC (DNA:RNA)
RNA: B1 RNA with G25A, A27C, C28G, C30A, U31C
DNA 1: CAATCTGAATTCCGGTCTCCC
DNA 2: TGGTGGCTACGACGGGATT
B28: GAAGACA (DNA:RNA)
RNA: B1 RNA with C28G, C29A, U31A
DNA 1: CAATCTGAATTCCGGTCTCCC
DNA 2: TGGTGGCTACGACGGGATT
B29: UAAAAGA (DNA:RNA)
RNA: B1 RNA with G25U, C28A, C29A, C30G, U31A
DNA 1: CAATCTGAATTCCGGTCTCCC
DNA 2: TGGTGGCTACGACGGGATT
B30: AUGUAUU (DNA:RNA)
RNA: B13 RNA with G29A, A31U
DNA 1: CAATCTGAATTCCGGTCTCCC
DNA 2: TGGTGGCTACGACGGGATT
B31: CGGGACA (DNA:RNA)
RNA: B13 RNA with A25C, U26G, U28G, G29A, U30C
DNA 1: CAATCTGAATTCCGGTCTCCC
DNA 2: TGGTGGCTACGACGGGATT

The binders below were run against T1, RBFOX1 RRM RbFoxmut (Fox-RRM*) (Homo sapiens, UniProt Q9NWB1 109-208, R118D;E147R;N151S;E152T) (assay: EMSA; HiTS-Eq, 1 nM pool, 10 min; buffer printed only for the single-RNA assays: 10 mM Tris pH 7.5, 150 mM NaCl, 3.4 mM EDTA, 0.001% NP-40, 30 C). Details: tags: His6 N-terminal (pET28a); label: 5' 32P.
T1 sequence: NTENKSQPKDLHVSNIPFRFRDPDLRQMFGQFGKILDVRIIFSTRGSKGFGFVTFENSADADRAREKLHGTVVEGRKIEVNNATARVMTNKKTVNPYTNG
Outline: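 Relative association constants, normalised to the cognate motif, were derived by comparing read counts of each RNA species with those of the control reaction. The RNA sequenced was the free fraction, separated by 8% native PAGE after a 10 min equilibration in 50 µL of 1 nM 5′-radiolabelled RNA (7 randomized nucleotides) with increasing concentrations of purified wild-type or mutant RbFox RRM.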

First: B1
Second: B2
The binding signal of the first is lower: 0.0592 KA relative to UGCAUGU for the first, 0.324 KA relative to UGCAUGU for the second.

First: B3
Second: B4
The binding signal of the first is lower: 0.0997 KA relative to UGCAUGU for the first, 0.126 KA relative to UGCAUGU for the second.

Compared with B5, B6 is lower in binding signal: 0.193 KA relative to UGCAUGU for the first, 0.102 KA relative to UGCAUGU for the second.

First: B7
Second: B8
The binding signal of the first is lower: 0.0985 KA relative to UGCAUGU for the first, 0.139 KA relative to UGCAUGU for the second.

First: B9
Second: B10
The binding signal of the first is higher: 0.0971 KA relative to UGCAUGU for the first, 0.0735 KA relative to UGCAUGU for the second.

First: B11
Second: B12
The binding signal of the first is lower: 0.0829 KA relative to UGCAUGU for the first, 0.103 KA relative to UGCAUGU for the second.

Compared with B13, B14 is lower in binding signal: 0.364 KA relative to UGCAUGU for the first, 0.0857 KA relative to UGCAUGU for the second.

Compared with B15, B16 is higher in binding signal: 0.0836 KA relative to UGCAUGU for the first, 0.139 KA relative to UGCAUGU for the second.

Compared with B17, B18 is lower in binding signal: 0.0905 KA relative to UGCAUGU for the first, 0.0768 KA relative to UGCAUGU for the second.

Compared with B19, B20 is higher in binding signal: 0.0732 KA relative to UGCAUGU for the first, 0.138 KA relative to UGCAUGU for the second.

Compared with B21, B22 is lower in binding signal: 0.0867 KA relative to UGCAUGU for the first, 0.0641 KA relative to UGCAUGU for the second.

First: B23
Second: B24
The binding signal of the first is higher: 0.351 KA relative to UGCAUGU for the first, 0.102 KA relative to UGCAUGU for the second.

First: B25
Second: B26
The binding signal of the first is lower: 0.0817 KA relative to UGCAUGU for the first, 0.11 KA relative to UGCAUGU for the second.

Compared with B27, B28 is lower in binding signal: 0.0684 KA relative to UGCAUGU for the first, 0.0478 KA relative to UGCAUGU for the second.

Compared with B29, B30 is higher in binding signal: 0.0641 KA relative to UGCAUGU for the first, 0.168 KA relative to UGCAUGU for the second.

With B31 the binding signal was 0.0803 KA relative to UGCAUGU.
